# Measurements from the supplement of paper PMC8728848.
# Some of the results follow.
# B1: Epa15 (Candida glabrata) (protein)
# chain: MGSSHHHHHHSSGLVPRGSHMASDPTTFPLGCSPEFTKTKKGLSMELYRYDYLPPGSYPCWDSAYLNPSYPRTGYKAKKLIATVDGVSGDINFKFNPKFGCKAIPDYLPSNFNYHEPITITNFTMILYGYFMPKTTAFHTFYVTADDLLFMNFGAGNAFDCCRREETADKFGNYAAYSVWGKKSLKNELTVYLHTGVYYPIRLFYNNRDYIAQLDIRFKTEHSNAIITNFTDYFYSVDDSSLGCPGLI
# Tests used:
# Test in all cases: glycan array binding signal (z-score within array); higher = stronger binding
# Details in all cases: glycan notation: IUPAC condensed, linker removed
# Fuc(a1-2)Gal = molecular target: Fuc(a1-2)Gal
# Method in brief: (§1)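 The binding signal is a Z-score computed within each array. Data were drawn from 3228 arrays in the Consortium for Functional Glycomics database, restricted to those with a known protein sequence. Scores were averaged over arrays of the same protein sequence at different concentrations or buffers, and over linkers, and negative values can be taken as non-binding.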
# Fuc(a1-2)Gal(b1-3)GalNAc = molecular target: Fuc(a1-2)Gal(b1-3)GalNAc
# Method in brief: as §1
# [1] = molecular target: Fuc(a1-2)Gal(b1-3)GalNAc(a1-3)[Fuc(a1-2)]Gal(b1-4)Glc
# Method in brief: as §1
# [2] = molecular target: Fuc(a1-2)Gal(b1-3)GalNAc(a1-3)[Fuc(a1-2)]Gal(b1-4)GlcNAc
# Method in brief: as §1
# [3] = molecular target: Fuc(a1-2)Gal(b1-3)GalNAc(b1-3)Gal
# Method in brief: as §1
# [4] = molecular target: Fuc(a1-2)Gal(b1-3)GalNAc(b1-3)Gal(a1-4)Gal(b1-4)Glc
# Method in brief: as §1
# [5] = molecular target: Fuc(a1-2)Gal(b1-3)GalNAc(b1-3)Gal(b1-4)Glc
# Method in brief: as §1
# [6] = molecular target: Fuc(a1-2)Gal(b1-3)GalNAc(b1-4)[Neu5Ac(a2-3)]Gal(b1-4)Glc
# Method in brief: as §1
# Fuc(a1-2)Gal(b1-3)GlcNAc = molecular target: Fuc(a1-2)Gal(b1-3)GlcNAc
# Method in brief: as §1
# [7] = molecular target: Fuc(a1-2)Gal(b1-3)GlcNAc(b1-2)Man(a1-3)[Fuc(a1-2)Gal(b1-3)GlcNAc(b1-2)Man(a1-6)]Man(b1-4)GlcNAc(b1-4)GlcNAc
# Method in brief: as §1
# [8] = molecular target: Fuc(a1-2)Gal(b1-3)GlcNAc(b1-2)Man(a1-3)[Fuc(a1-2)Gal(b1-3)GlcNAc(b1-2)Man(a1-6)]Man(b1-4)GlcNAc(b1-4)[Fuc(a1-6)]GlcNAc
# Method in brief: as §1
# [9] = molecular target: Fuc(a1-2)Gal(b1-3)GlcNAc(b1-3)Gal(b1-4)Glc
# Method in brief: as §1
# [10] = molecular target: Fuc(a1-2)Gal(b1-3)GlcNAc(b1-3)GalNAc
# Method in brief: as §1
# [11] = molecular target: Fuc(a1-2)Gal(b1-3)GlcNAc(b1-3)[Fuc(a1-2)Gal(b1-3)GlcNAc(b1-6)]GalNAc
# Method in brief: as §1
# [12] = molecular target: Fuc(a1-2)Gal(b1-3)GlcNAc(b1-3)[Gal(b1-4)GlcNAc(b1-6)]Gal(b1-4)Glc
# Method in brief: as §1
# [13] = molecular target: Fuc(a1-2)Gal(b1-3)GlcNAc(b1-3)[Neu5Ac(a2-6)Gal(b1-4)GlcNAc(b1-6)]Gal(b1-4)Glc
# Method in brief: as §1
# [14] = molecular target: Fuc(a1-2)Gal(b1-3)GlcNAc6S
# Method in brief: as §1
# [15] = molecular target: Fuc(a1-2)Gal(b1-3)[Fuc(a1-4)]GlcNAc
# Method in brief: as §1
# [16] = molecular target: Fuc(a1-2)Gal(b1-3)[Fuc(a1-4)]GlcNAc(b1-2)Man(a1-3)[Fuc(a1-2)Gal(b1-3)[Fuc(a1-4)]GlcNAc(b1-2)Man(a1-3)]Man(b1-4)GlcNAc(b1-4)GlcNAc
# Method in brief: as §1
# [17] = molecular target: Fuc(a1-2)Gal(b1-3)[Fuc(a1-4)]GlcNAc(b1-2)Man(a1-3)[Fuc(a1-2)Gal(b1-3)[Fuc(a1-4)]GlcNAc(b1-2)Man(a1-6)]Man(b1-4)GlcNAc(b1-4)[Fuc(a1-6)]GlcNAc(b1-4)[Fuc(a1-6)]GlcNAc
# Method in brief: as §1
# [18] = molecular target: Fuc(a1-2)Gal(b1-3)[Fuc(a1-4)]GlcNAc(b1-3)[Fuc(a1-3)[Gal(b1-4)]GlcNAc(b1-6)]Gal(b1-4)Glc
# Method in brief: as §1
# [19] = molecular target: Fuc(a1-2)Gal(b1-3)[Fuc(a1-4)]GlcNAc(b1-3)[Gal(b1-4)GlcNAc(b1-6)]Gal(b1-4)Glc
# Method in brief: as §1
# [20] = molecular target: Fuc(a1-2)Gal(b1-4)Fuc(a1-3)]GlcNAc(b1-2)Man(a1-3)[Fuc(a1-2)Gal(b1-4)[Fuc(a1-3)]GlcNAc(b1-2)Man(a1-6)]Man(b1-4)GlcNAc(b1-4)GlcNAc
# Method in brief: as §1
# Fuc(a1-2)Gal(b1-4)Glc = molecular target: Fuc(a1-2)Gal(b1-4)Glc
# Method in brief: as §1
# Fuc(a1-2)Gal(b1-4)Glc6S = molecular target: Fuc(a1-2)Gal(b1-4)Glc6S
# Method in brief: as §1
# Fuc(a1-2)Gal(b1-4)GlcNAc = molecular target: Fuc(a1-2)Gal(b1-4)GlcNAc
# Method in brief: as §1
# [21] = molecular target: Fuc(a1-2)Gal(b1-4)GlcNAc(b1-2)Man
# Method in brief: as §1
# [22] = molecular target: Fuc(a1-2)Gal(b1-4)GlcNAc(b1-2)Man(a1-3)[Fuc(a1-2)Gal(b1-4)GlcNAc(b1-2)Man(a1-6)]Man(b1-4)GlcNAc(b1-4)GlcNAc
# Method in brief: as §1
# [23] = molecular target: Fuc(a1-2)Gal(b1-4)GlcNAc(b1-2)Man(a1-3)[Fuc(a1-2)Gal(b1-4)GlcNAc(b1-2)Man(a1-6)]Man(b1-4)GlcNAc(b1-4)[Fuc(a1-6)]GlcNAc
# Method in brief: as §1
# [24] = molecular target: Fuc(a1-2)Gal(b1-4)GlcNAc(b1-2)[Fuc(a1-2)Gal(b1-4)GlcNAc(b1-4)]Man(a1-3)[Fuc(a1-2)Gal(b1-4)GlcNAc(b1-2)Man(a1-6)]Man(b1-4)GlcNAc(b1-4)GlcNAc
# Method in brief: as §1
binder,measurement,setting,value
B1,glycan array binding signal (z-score),Fuc(a1-2)Gal,-0.383
same,glycan array binding signal (z-score),Fuc(a1-2)Gal(b1-3)GalNAc,-0.333
same,glycan array binding signal (z-score),[1],-0.385
same,glycan array binding signal (z-score),[2],-0.417
same,glycan array binding signal (z-score),[3],-0.095
same,glycan array binding signal (z-score),[4],-0.443
same,glycan array binding signal (z-score),[5],-0.272
same,glycan array binding signal (z-score),[6],-0.249
same,glycan array binding signal (z-score),Fuc(a1-2)Gal(b1-3)GlcNAc,-0.531
same,glycan array binding signal (z-score),[7],0.223
same,glycan array binding signal (z-score),[8],-0.142
same,glycan array binding signal (z-score),[9],-0.526
same,glycan array binding signal (z-score),[10],-0.441
same,glycan array binding signal (z-score),[11],0.29
same,glycan array binding signal (z-score),[12],-0.179
same,glycan array binding signal (z-score),[13],-0.332
same,glycan array binding signal (z-score),[14],-0.366
same,glycan array binding signal (z-score),[15],-0.446
same,glycan array binding signal (z-score),[16],-0.054
same,glycan array binding signal (z-score),[17],-0.535
same,glycan array binding signal (z-score),[18],-0.504
same,glycan array binding signal (z-score),[19],-0.547
same,glycan array binding signal (z-score),[20],0.389
same,glycan array binding signal (z-score),Fuc(a1-2)Gal(b1-4)Glc,-0.401
same,glycan array binding signal (z-score),Fuc(a1-2)Gal(b1-4)Glc6S,-0.328
same,glycan array binding signal (z-score),Fuc(a1-2)Gal(b1-4)GlcNAc,-0.446
same,glycan array binding signal (z-score),[21],-0.5
same,glycan array binding signal (z-score),[22],-0.115
same,glycan array binding signal (z-score),[23],0.381
same,glycan array binding signal (z-score),[24],-0.548
